The values below come from PubChem BioAssay AID1347073 (National Center for Advancing Translational Sciences (NCATS), 2019).

Screen size: about 45,000 compounds; about 200 (0.44%) were called active. Roughly 7% stayed inconclusive and do not appear here. The call rests on the fitted dose curve; in most records, active means well fitted activation curve with a large enough effect; inconclusive means small, poorly fitted or top-dose-only effect; inactive means no such curve, though single readings can be large or run the other way. Some of the results follow.

The test can be described thus: qHTS of TDP-43 Inhibitors: NCGC Sytravon Library Screen. Further: 0% is about no effect; nearly all actives have a fitted effect of over 55% in size. To be noted: yeast TDP-43 toxicity rescue, BacTiter-Glo growth, 24 h; series mostly up to 46.1 µM; growth rescue (activation): at the top concentration. An outline of the steps:
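TDP-43-expressing yeast, pregrown in raffinose, seeded at OD600 0.02 in galactose medium with compound for 24 hr at 30 deg C. Growth read by BacTiter-Glo luminescence, so rescue of toxicity appears as activation.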
For the compound `Cc1ccc(C(=O)c2cc([N+](=O)[O-])ccc2N2CCCCC2)cc1`, the “growth rescue (activation)” value is inactive: 7.63%.

Turning to `O=C(N/N=C/c1ccncc1)c1ccccc1`, the “growth rescue (activation)” value is inactive: -30.3%.

On to `CC1CCCN(C(=O)CN2C(=O)NC(C)(c3ccc4ccccc4c3)C2=O)C1` (centres undefined), for which the “growth rescue (activation)” value is inactive: 11.1%.

As to `Cc1ccc(-c2nn(-c3cccc(F)c3)cc2CNCCc2ccncc2)o1`, the “growth rescue (activation)” value was inactive: 0.369%.

Take `CCNC(=O)NC(=O)COC(=O)C1CSC2(C)CCC(=O)N12` (centres undefined): the “growth rescue (activation)” value was inactive: -3.77%.

As for `O=C(COC(=O)c1ccc(Br)cc1)NCc1ccc(F)cc1`, the “growth rescue (activation)” value is inactive: 28.6%.

As for `Cc1ccc(S(=O)(=O)N(C)C)cc1NC(=S)NCCCn1ccnc1`, the “growth rescue (activation)” value is inactive: 2.72%.

For `CC(C)C(=O)OC/C(O)=C(\C#N)c1nc2ccccc2[nH]1`, the “growth rescue (activation)” value was inactive: -3.68%.

In the case of `COc1ccc(N2CCN(C(=O)C3CCN(C(=O)c4cccc(Cl)c4)CC3)CC2)cc1`, the “growth rescue (activation)” value is inactive: 5%.

Take `CN(Cc1ccccc1)C(=O)c1ccccc1C(=O)O`: the “growth rescue (activation)” value is inactive: 10.7%.

For the compound `CN1CCN(C(=O)CN(c2ccccc2)S(=O)(=O)N(C)C)CC1`, the “growth rescue (activation)” value is inactive: 7.37%.

With `COc1ccc(CCNC(=O)C2=COCCO2)cc1`, the “growth rescue (activation)” value was inactive: 26.9%.

Consider `O=C(CCS(=O)(=O)Cc1ccccc1F)NCc1ccccc1Cl`, for which the “growth rescue (activation)” value is inactive: 1.57%.

Take `CC(=O)Nc1ccc(NC(=O)COC(=O)c2c3c(nc4ccccc24)CCN(Cc2ccccc2)C3)cc1`: the “growth rescue (activation)” value is inactive: 6.6%.

For the compound `CCC(=O)N1CCC(C)(C(=O)Nc2nccc3ccccc23)C1` (centres undefined), the “growth rescue (activation)” value is inactive: 10.1%.

Turning to `O=C(NCc1cc(Cl)cc(Cl)c1)c1csc([C@@H]2C[C@H](O)[C@@H](CO)O2)n1`, the “growth rescue (activation)” value was inactive: 7.67%.

In the case of `Cc1ccc(CCN2CC(C(=O)NCCN3CCCCCC3)CC2=O)cc1` (centres undefined), the “growth rescue (activation)” value is inactive: 12.4%.

On to `Cn1c(SCc2ccc([N+](=O)[O-])cc2)nnc1-c1cccnc1`, for which the “growth rescue (activation)” value is inactive: -3.87%.

Consider `O=S(=O)(NC(=NCc1ccccc1)c1ccccc1)c1ccccc1`, for which the “growth rescue (activation)” value is inactive: 7.67%.

Regarding `CC(=O)c1ccc(N(CC(=O)NC2CCS(=O)(=O)C2)S(=O)(=O)c2ccc(C)cc2)cc1` (centres undefined), the “growth rescue (activation)” value is inactive: 9.4%.

`CS(=O)(=O)c1ccc2sc(NC(=O)c3cc4ccccc4o3)nc2c1`: the “growth rescue (activation)” value is inactive: -0.832%.

For the compound `Cn1c(C(=O)O)cnc1Sc1ncc(C(F)(F)F)cc1Cl`, the “growth rescue (activation)” value was inactive: 5.99%.

As for `CCCC1C(c2ccco2)NC(c2ccco2)CC1(C)O` (centres undefined), the “growth rescue (activation)” value was inactive: 2.96%.

`CCn1c(SCC(=O)Nc2ccc(N3CCOCC3)cc2)nnc1-c1ccco1`: the “growth rescue (activation)” value is inactive: 8.37%.

Consider `Cc1cc(Nc2ccccc2)n(-c2ccc(C(=O)O)cc2)n1`, for which the “growth rescue (activation)” value was inactive: 22.4%.

In the case of `CCC(C)c1ccccc1NC(=O)c1cc(C)no1` (centres undefined), the “growth rescue (activation)” value was inactive: -1.39%.

For the compound `O=C(NCc1ccccc1)N(Cc1cc2cc3c(cc2[nH]c1=O)OCCO3)CC1CCCO1` (centres undefined), the “growth rescue (activation)” value was inactive: 8.89%.

Take `O=C(NCCc1ccc2c(c1)OCCO2)c1ccc(F)cc1`: the “growth rescue (activation)” value was inactive: -23.2%.

Turning to `NC(=O)c1ccccc1NC(=O)c1ccccc1S(=O)(=O)c1ccccc1[N+](=O)[O-]`, the “growth rescue (activation)” value is inactive: 13.6%.

Regarding `COc1ccc(Br)cc1C(=O)Nc1ccc(-c2nc3cc(Cl)ccc3o2)cc1`, the “growth rescue (activation)” value is inactive: 14.9%.

In the case of `Cn1c(=O)[nH]c(=O)c2c1nc(N1CCN(CCO)CC1)n2Cc1ccccc1`, the “growth rescue (activation)” value was inactive: -16.7%.

With `Cn1cccc1CC(=O)NNC(=S)Nc1ccc(F)cc1`, the “growth rescue (activation)” value was inactive: 11.1%.

Turning to `Cc1ccc(NC(=O)CN(C)C(=O)C2COc3ccccc3O2)cc1` (centres undefined), the “growth rescue (activation)” value was inactive: 22.6%.

`COCC(=O)OC/C(O)=C(\C#N)c1nc2ccccc2[nH]1`: the “growth rescue (activation)” value is inactive: -10.6%.

For `Cc1ccc(C)c(Cn2nnc3c(=O)[nH]c(C4CCN(C(=O)c5ccco5)CC4)nc32)c1`, the “growth rescue (activation)” value was inactive: 17.1%.

`O=C(Cc1cc(=O)oc2cc(O)ccc12)NC(Cc1ccc(Cl)cc1)C(=O)O` (centres undefined): the “growth rescue (activation)” value was inactive: 0.656%.

As for `COc1ccccc1NS(=O)(=O)c1ccc(O)c(NC(=S)NCC2CCCO2)c1` (centres undefined), the “growth rescue (activation)” value is inactive: 21.8%.

On to `CC1CN(C(=S)Nc2ccc(SC(F)F)cc2)CC(C)O1` (centres undefined), for which the “growth rescue (activation)” value was inactive: 18%.

Turning to `O=C(NCc1ccc(F)cc1)c1c2c(nc3ccccc13)CCN(Cc1ccccc1)C2`, the “growth rescue (activation)” value is inactive: 29.8%.

As to `CCNc1nc(NCC)n2c(SCC(=O)Nc3ccc(C(F)(F)F)cc3[N+](=O)[O-])nnc2n1`, the “growth rescue (activation)” value is inactive: 19.9%.

Regarding `CCOc1ccccc1N1CCN(C(=O)CNC(=O)c2ccccc2F)CC1`, the “growth rescue (activation)” value is inactive: 14.8%.

As to `Cc1nnc(SC(C)C(=O)NC2CCCCC2)[nH]c1=O` (centres undefined), the “growth rescue (activation)” value was inactive: -0.454%.

On to `O=S(=O)(c1ccc(C(F)(F)F)cc1)N1CCN(CCc2ccccc2)CC1`, for which the “growth rescue (activation)” value was inactive: -5.99%.

As for `O=C(Nc1nc2ccccc2[nH]1)c1ccc(OC(F)F)cc1`, the “growth rescue (activation)” value is inactive: -8.29%.

`CCOC(=O)c1ccc(S(=O)(=O)N2CCN(CC(O)COc3ccc(C#N)cc3)CC2)cc1` (centres undefined): the “growth rescue (activation)” value is inactive: -23.6%.

Regarding `CCC(C(=O)OCC(=O)NC(=O)NC(C)(C)C)c1ccccc1` (centres undefined), the “growth rescue (activation)” value was inactive: 1.4%.

For `CCCN(CCC)CCCNC(=O)Cn1cnc2sc(C)c(S(=O)(=O)N3CCOCC3)c2c1=O`, the “growth rescue (activation)” value was inactive: 10%.

With `COCCNC(=O)Cn1cc(C(=S)N2CCCCC2)c2ccccc21`, the “growth rescue (activation)” value is inactive: 24.7%.

Turning to `COc1cc(/C=C2\SC(=S)N(NC(=O)c3ccccc3O)C2=O)ccc1O`, the “growth rescue (activation)” value is inactive: -9.24%.

On to `O=C(NNc1ccccc1)C(=O)N1CCCCC1`, for which the “growth rescue (activation)” value was inactive: 15.7%.

As for `Cc1[nH]c2ccccc2c1/C=N/NC(N)=S`, the “growth rescue (activation)” value was inactive: 3.04%.

On to `CCn1c2ccccc2c2cc(NC(=O)COc3ccccc3)ccc21`, for which the “growth rescue (activation)” value was inactive: -4.15%.

For the compound `O=C(NCCc1cccnc1)C1CCC(=O)N(Cc2cccc(C(F)(F)F)c2)C1` (centres undefined), the “growth rescue (activation)” value is inactive: 6.49%.

`Cc1cc(C)n2cnnc2n1`: the “growth rescue (activation)” value is inactive: -2.27%.

For `COc1cc(-c2cc(C(=O)Nc3cc(S(=O)(=O)N4CCOCC4)ccc3O)c3ccccc3n2)cc(OC)c1OC`, the “growth rescue (activation)” value is inactive: 15.6%.

Regarding `COc1ccc(C(=O)N2CCCCC2c2cc(C(=O)NCc3ccccc3)no2)cc1` (centres undefined), the “growth rescue (activation)” value is inactive: -2.14%.

On to `COc1ccc(C(=O)OCC(=O)NC2CCCC2)c(OC)c1OC`, for which the “growth rescue (activation)” value was inactive: -5.53%.

For `CC(=O)Nc1nnc(SCC(=O)NC2CCCC2)s1`, the “growth rescue (activation)” value is inactive: -10.4%.

On to `Cc1cc(-c2nnc(CCC(=O)NC(Cc3ccccc3)c3ccccc3)o2)no1` (centres undefined), for which the “growth rescue (activation)” value was inactive: 12%.

Regarding `CCOc1cc2ccccc2cc1C(=O)Nc1ccccn1`, the “growth rescue (activation)” value is inactive: -6.08%.

Consider `COc1ccccc1NS(=O)(=O)c1cc(NC(=O)Cc2n[nH]c(=O)c3ccccc23)ccc1Cl`, for which the “growth rescue (activation)” value is inactive: 14.9%.

With `O=C(O)c1cccc(S(=O)(=O)N2CCN(C(c3ccccc3)c3ccccc3)CC2)c1`, the “growth rescue (activation)” value is inactive: -2.08%.

`O=C(CN1CCN(c2ccccc2F)CC1)c1ccc(O)c(O)c1`: the “growth rescue (activation)” value is inactive: -19.3%.

For `N=c1oc2ccc(Br)cc2cc1C(=O)NCc1ccccc1`, the “growth rescue (activation)” value was inactive: -4.85%.

`COc1cccc2c(=S)c(CCC(C)=O)c(C)[nH]c12`: the “growth rescue (activation)” value was inactive: 9.28%.

Consider `COC(=O)C1CN(S(=O)(=O)c2ccc(NC(C)=O)cc2)CCS1` (centres undefined), for which the “growth rescue (activation)” value was inactive: -5.85%.

As for `CN1C(=O)c2cccc3c(S(=O)(=O)N4CCCC4C(=O)O)ccc1c23` (centres undefined), the “growth rescue (activation)” value is inactive: -0.234%.

For `O=C(NC(=S)Nc1ccccc1N1CCOCC1)c1ccc(-c2ccccc2F)o1`, the “growth rescue (activation)” value is inactive: 10.2%.

As for `CCOc1ccc(NCc2cccn2-c2nnc(N3CCC(C(=O)NCCOC)CC3)s2)cc1`, the “growth rescue (activation)” value was inactive: 0.801%.
